PubChem BioAssay AID463173 (ICCB-Longwood Screening Facility, Harvard Medical School, 2010)
About 4,300 (8.3%) of roughly 52,000 compounds were called active. No stated cut-off is given here; in the data, active means survival mostly below about 52% (no sharp cut-off); inactive means mostly above about 56%. Some of the results follow.

System: DeltatarO mutant
Experiment: S. aureus survival, RN4220 and DeltatarO strains – OD600, teichoic acid synthesis inhibitors, primary screen (AID 463173)
Details: S. aureus RN4220 wild type/DeltatarO growth, OD600, 18 h, hits give low values, screened at 18.75 µg/mL (by protocol)

SMILES | survival
Cc1oc(C(C)(C)C)cc1C(=O)NCCO | inactive: 77%
Cc1nn(-c2ccc(F)cc2)c(-n2cccc2)c1C(=O)N1CCN(c2ccccc2F)CC1 | inactive: 76%
COc1ccccc1CNC(=O)CN(c1ccc(C)cc1)S(=O)(=O)c1c(C)noc1C | inactive: 85%
O=C(Nc1c(-c2ccc(F)cc2)nc2ccccn12)c1cccc(F)c1 | inactive: 146%
Cc1c(C(=O)Nc2ccc(F)c(F)c2)oc2ccc(S(=O)(=O)N3CCC4(CC3)OCCO4)cc12 | inactive: 85%
CC(=O)Nc1ccc(NS(=O)(=O)c2ccc(Cl)s2)cc1 | inactive: 57%
Nc1ccc2c(c1)ncn2CCO | inactive: 88%
CCCCc1ccc(NS(=O)(=O)c2ccc(N3CCCCS3(=O)=O)cc2)cc1 | inactive: 99%
CCOc1ccc(C(=O)c2cn(Cc3ccccc3)c3c(F)cc(F)cc3c2=O)cc1 | inactive: 78%
COc1ccc(OC)c(NC(=O)c2cnc(N3CCCC3)nc2C)c1 | inactive: 70%
CCNC(=S)N1CCC(NC(=O)C23CC4CC(CC(C4)C2)C3)CC1 | inactive: 80%
Cc1c(C)n(C)c2ccc(C(=O)NCCc3ccc(Cl)cc3)cc12 | inactive: 78%
COC(=O)c1c(C)oc2ccc(N(C(=O)Oc3ccccc3)S(=O)(=O)c3ccc(C(C)(C)C)cc3)cc12 | inactive: 85%
O=C(NCCc1ccc(Cl)cc1)c1ccc2c(c1)N(Cc1c(F)cccc1Cl)C(=O)CS2 | active: 44%
Cc1ccc(NC(=O)C2CCCN(S(=O)(=O)c3c(C)n[nH]c3C)C2)cc1Cl (stereo unspecified) | inactive: 83%
CCSc1nnc2c(n1)OC(c1sccc1C)N(C(C)=O)c1ccccc1-2 (stereo unspecified) | inactive: 53%
CC(CC(=O)NC1CCCC1)c1ccccc1 (stereo unspecified) | inactive: 90%
O=C(CSc1nc2c([nH]c3ccccc32)c(=O)n1-c1ccc(F)cc1)NCc1ccco1 | inactive: 81%
CC1=C(C(=O)Nc2cc(Cl)ccc2C)C(c2ccco2)n2ncnc2N1 (stereo unspecified) | inactive: 92%

SMILES | survival
O=C(NCc1cccc(F)c1)c1ccc2nc(N3CCCCC3)sc2c1 | inactive: 85%
CCOC(=O)C1CCCN(S(=O)(=O)c2cc3c(cc2C)NC(=O)CO3)C1 (stereo unspecified) | inactive: 89%
Cc1ccc(OCC(=O)Nc2ccc3nc(SCC(N)=O)sc3c2)cc1 | inactive: 73%
COc1ccc(Cn2c(=O)c3oc4ccccc4c3n(Cc3cccc(F)c3)c2=O)cc1 | inactive: 77%
COc1ccccc1N1CCN(CCCNC(=O)c2cnn(-c3ccc(C)c(C)c3)c2C2CCN(C(=O)OC(C)(C)C)CC2)CC1 | inactive: 98%
Fc1ccc(-c2cc(C(F)(F)F)nc(NCc3ccccc3)n2)cc1 | inactive: 85%
CCCCS(=O)(=O)c1oc(-c2ccc(F)cc2)nc1S(=O)(=O)c1ccccc1 | active: 4%
O=C(c1ccc2c(c1)N(Cc1ccc(F)cc1)C(=O)c1ccccc1S2(=O)=O)N1CCN(c2ccccn2)CC1 | inactive: 111%
COc1ccccc1CNC(=O)c1cnc2c(-c3ccccc3)c(C)nn2c1C | inactive: 96%
CCOC(=O)c1c(NC(=O)C(C)Sc2cn(CCNC(=O)c3ccccc3OC)c3ccccc23)sc2c1CCC2 (stereo unspecified) | inactive: 80%
COC(=O)c1sc2cccc(F)c2c1S(=O)(=O)NCc1ccc(Cl)cc1 | inactive: 102%
Cc1ccc(-n2nc3ccc(NC(=O)Cc4ccc(Cl)cc4)cc3n2)cc1 | inactive: 79%
COc1ccc(-c2noc(N3CCN(c4ccc(C)cc4)C(C)C3)n2)cc1OC (stereo unspecified) | inactive: 99%
Cc1ccc(CSc2ncc(Cl)c(C(=O)Oc3ccc(F)cc3)n2)cc1 | inactive: 77%
CCC1Oc2ccc(C)cc2N(CC(=O)N(Cc2ccc(F)cc2)CC2CCCO2)C1=O (stereo unspecified) | inactive: 90%
CCOc1ccc(NC(=O)Cn2c(=O)n(CCCC(=O)NCc3ccc4c(c3)OCO4)c(=O)c3ccccc32)cc1 | inactive: 90%
Cc1ccc(-c2noc(=O)n2CC(=O)Nc2ccc(S(=O)(=O)N3CCCC3)cc2)cc1 | inactive: 89%
CCOC(=O)c1ccc2c(c1)[C@@H]1C=CC[C@@H]1[C@H](c1cccc(OC)c1OC)N2 | active: -10%
Cc1cc(C)c2sc(N(Cc3cccnc3)C(=O)CCOc3ccccc3)nc2c1 | inactive: 115%

SMILES | survival
CCCC(=O)C1=C(c2cccc(OC)c2)N(C(=O)CCC)n2c(C)nnc2S1 | inactive: 85%
CCc1nn(CC(=O)N2CCN(c3ccc(Cl)cc3)CC2)c(=O)c2cc3occc3n12 | inactive: 87%
CCn1c(=O)n(-c2cccc(Cl)c2)c(=O)c2sc3ccccc3c21 | inactive: 112%
O=C(Nc1ccc(Cl)cc1)c1cc2nc(-c3ccc4c(c3)OCO4)cc(C(F)(F)F)n2n1 | inactive: 83%
CC(=O)c1ccc(N2CCN(C(=O)c3cc4ccc5cccnc5c4[nH]3)CC2)cc1 | inactive: 55%
COc1ccc(C(=O)Nc2ccccc2-c2nc(-c3ccc(OC)cc3)no2)cc1 | inactive: 48%
O=C(c1cnc(N2CCCCC2)c2ccccc12)N1CCN(c2ccc(Cl)cc2)CC1 | inactive: 83%
COc1ccc(CCN2CC(C(=O)NCCc3ccccc3)CC2=O)cc1OC (stereo unspecified) | inactive: 76%
O=C(CCC(=O)c1ccccc1)Nc1ccc(F)c(Cl)c1 | inactive: 83%
COc1ccc(OC)c(/C=C(\C#N)c2nc3ccccc3c(=O)[nH]2)c1 | inactive: 156%
Cc1cccc(NC(=O)C2CCCN(S(=O)(=O)c3ccc4c(c3)oc(=O)n4C)C2)c1 (stereo unspecified) | inactive: 70%
O=S(=O)(NCCS(=O)(=O)N1CCN(c2ccccc2)CC1)c1ccc(Cl)cc1 | inactive: 89%
Cc1sc2c(c1C)c(=O)n(CCc1ccccc1)c(=O)n2Cc1ccc(F)cc1 | inactive: 52%
Cc1ccc(C)c(S(=O)(=O)NCCc2csc(-c3ccc(Cl)cc3)n2)c1 | inactive: 94%
COc1cc(OC)c(NC(=O)N2CCC(CN3CCOCC3)CC2)cc1Cl | inactive: 97%
CN1CCN(Cc2c(O)ccc3cc(-c4ccc(Cl)cc4)c(=O)oc23)CC1 | inactive: 100%
CCc1cccc(NC(=O)CCc2c(C)nc3c(-c4ccccc4)c(C)nn3c2C)c1 | inactive: 68%
CCN(C(=O)Cn1c(=O)oc2cc(S(=O)(=O)N3CCCCC3)ccc21)c1ccccc1 | inactive: 62%
